# From the supplement of paper PMC10037445
# In all, about 2,900 compounds were measured (“NF-kB SEAP reporter activity, fold change vs agonist alone”: median about 0.99, highest 2% from about 2.6 on). Some of the results follow.
# Tests used:
# RAW-Dual [1] = assay: NF-kB SEAP reporter activity, fold change vs agonist alone; cytotoxicity flag (confluency mask): not cytotoxic; higher = enhanced NF-kB activity
# In short: (§1)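 RAW-Dual macrophages were seeded in DMEM at 50,000 cells/well in 384-well plates, given 50 nL of library stock by pin tool, and given a PRR agonist 1 h later. Plates were held at 37 °C, 5% CO2 for 20 hours, after which supernatant was read for IRF by QuantiLuc luminescence and for NF-κB by QuantiBlue absorbance at 620 nm. Reporter activity is expressed as fold change over wells that received agonist alone. A well was called cytotoxic when IncuCyte confluency fell below 70% of agonist controls in both mask sets.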
# RAW-Dual [2] = assay: NF-kB SEAP reporter activity, fold change vs agonist alone; higher = enhanced NF-kB activity
# In short: as §1
# RAW-Dual [3] = assay: NF-kB SEAP reporter activity, fold change vs agonist alone; cytotoxicity flag (confluency mask): cytotoxic (confluency <70% of control); higher = enhanced NF-kB activity
# In short: as §1
# [4] = agonist: ODN 1826 (TLR9) 0.5 ug/mL
# [5] = agonist: Pam2CSK4 (TLR2/6) 0.1 ug/mL
# [6] = agonist: Pam3CSK4 (TLR2/1) 0.1 ug/mL
# [7] = library stock concentration (final ~1000-fold dilution): 10 mM, cytotoxicity flag (confluency mask): not cytotoxic, agonist: MPLA (TLR4) […]
# [8] = library stock concentration (final ~1000-fold dilution): 10 mM, cytotoxicity flag (confluency mask): not cytotoxic, agonist: Imiquimod (TLR7) […]
smiles,measurement,setting,value
OB1OCc2cc(F)ccc21 (library stock concentration (final ~1000-fold dilution): 10 mM),NF-kB SEAP reporter activity,RAW-Dual [1]; agonist: LPS (TLR4) 0.1 ug/mL,1.02
same,NF-kB SEAP reporter activity,RAW-Dual [1]; [4],0.839
same,NF-kB SEAP reporter activity,RAW-Dual [1]; [5],0.808
same,NF-kB SEAP reporter activity,RAW-Dual [1]; [6],0.696
OB1OCc2cc(F)ccc21,NF-kB SEAP reporter activity,RAW-Dual [2]; [7],0.997
CN1CCc2c(c3ccccc3n2Cc2ccccc2)C1.CN1CCc2c(c3ccccc3n2Cc2ccccc2)C1.O=S(=O)(O)c1cccc2c(S(=O)(=O)O)cccc12 (library stock concentration (final ~1000-fold dilution): 2 mM),NF-kB SEAP reporter activity,RAW-Dual [1]; agonist: LPS (TLR4) 0.1 ug/mL,1.29
same,NF-kB SEAP reporter activity,RAW-Dual [1]; [4],0.722
same,NF-kB SEAP reporter activity,RAW-Dual [1]; [5],0.952
same,NF-kB SEAP reporter activity,RAW-Dual [1]; [6],0.958
CN1CCc2c(c3ccccc3n2Cc2ccccc2)C1.CN1CCc2c(c3ccccc3n2Cc2ccccc2)C1.O=S(=O)(O)c1cccc2c(S(=O)(=O)O)cccc12,NF-kB SEAP reporter activity,"RAW-Dual [2]; library stock concentration (final ~1000-fold dilution): 2 mM, cytotoxicity flag (confluency mask): not cytotoxic, agonist: MPLA (TLR4) […]",1.15
CC(=O)OC1(C(C)=O)CCC2C3C=C(Cl)C4=CC(=O)CCC4(C)C3CCC21C (stereo not given),NF-kB SEAP reporter activity,RAW-Dual [2]; [8],1.28
same,NF-kB SEAP reporter activity,RAW-Dual [2]; [7],1.12
CC(=O)OC1(C(C)=O)CCC2C3C=C(Cl)C4=CC(=O)CCC4(C)C3CCC21C (stereo not given) (library stock concentration (final ~1000-fold dilution): 10 mM),NF-kB SEAP reporter activity,RAW-Dual [1]; agonist: LPS (TLR4) 0.1 ug/mL,1.21
same,NF-kB SEAP reporter activity,RAW-Dual [1]; [4],1.14
same,NF-kB SEAP reporter activity,RAW-Dual [1]; [5],1.08
same,NF-kB SEAP reporter activity,RAW-Dual [1]; [6],1.16
O=C(CCCCCCCC(=O)NCCO)NCCO (library stock concentration (final ~1000-fold dilution): 10 mM),NF-kB SEAP reporter activity,RAW-Dual [1]; agonist: LPS (TLR4) 0.1 ug/mL,1.2
same,NF-kB SEAP reporter activity,RAW-Dual [1]; [4],0.998
same,NF-kB SEAP reporter activity,RAW-Dual [1]; [5],0.991
same,NF-kB SEAP reporter activity,RAW-Dual [1]; [6],0.856
O=C(CCCCCCCC(=O)NCCO)NCCO,NF-kB SEAP reporter activity,RAW-Dual [2]; [8],0.913
same,NF-kB SEAP reporter activity,RAW-Dual [2]; [7],1.03
Cc1c[nH]c(C=C2C(=O)Nc3ccccc32)c1CCC(=O)O (library stock concentration (final ~1000-fold dilution): 10 mM),NF-kB SEAP reporter activity,RAW-Dual [1]; agonist: LPS (TLR4) 0.1 ug/mL,0.665
same,NF-kB SEAP reporter activity,RAW-Dual [1]; [4],0.926
same,NF-kB SEAP reporter activity,RAW-Dual [1]; [5],0.983
same,NF-kB SEAP reporter activity,RAW-Dual [1]; [6],0.647
Cc1c[nH]c(C=C2C(=O)Nc3ccccc32)c1CCC(=O)O,NF-kB SEAP reporter activity,RAW-Dual [2]; [8],0.662
same,NF-kB SEAP reporter activity,RAW-Dual [2]; [7],0.848
CCN(CC)Cc1ccc(C(=O)N(CCc2ccccc2OC)C2CCNC2)cc1 (stereo not given) (library stock concentration (final ~1000-fold dilution): 10 mM),NF-kB SEAP reporter activity,RAW-Dual [1]; agonist: LPS (TLR4) 0.1 ug/mL,0.9
same,NF-kB SEAP reporter activity,RAW-Dual [1]; [4],0.312
same,NF-kB SEAP reporter activity,RAW-Dual [1]; [5],0.883
same,NF-kB SEAP reporter activity,RAW-Dual [1]; [6],0.613
CCN(CC)Cc1ccc(C(=O)N(CCc2ccccc2OC)C2CCNC2)cc1 (stereo not given),NF-kB SEAP reporter activity,RAW-Dual [2]; [8],0.518
same,NF-kB SEAP reporter activity,RAW-Dual [2]; [7],1.28
CCN(CCCc1ccccc1)CCCc1ccccc1.O=C(O)CC(O)(CC(=O)O)C(=O)O (library stock concentration (final ~1000-fold dilution): 10 mM),NF-kB SEAP reporter activity,RAW-Dual [3]; agonist: LPS (TLR4) 0.1 ug/mL,1.14
same,NF-kB SEAP reporter activity,RAW-Dual [3]; [4],1.31
same,NF-kB SEAP reporter activity,RAW-Dual [3]; [5],1.02
same,NF-kB SEAP reporter activity,RAW-Dual [3]; [6],1.03
CCN(CCCc1ccccc1)CCCc1ccccc1.O=C(O)CC(O)(CC(=O)O)C(=O)O,NF-kB SEAP reporter activity,"RAW-Dual [2]; library stock concentration (final ~1000-fold dilution): 10 mM, cytotoxicity flag (confluency mask): cytotoxic (confluency <70% of control), agonist: Imiquimod (TLR7) […]",1.54
same,NF-kB SEAP reporter activity,"RAW-Dual [2]; library stock concentration (final ~1000-fold dilution): 10 mM, cytotoxicity flag (confluency mask): cytotoxic (confluency <70% of control), agonist: MPLA (TLR4) […]",1.11
COc1ccc(C(=O)NCc2ccc(OCCN(C)C)cc2)cc1OC.Cl,NF-kB SEAP reporter activity,RAW-Dual [2]; [7],1.01
COc1ccc(C(=O)NCc2ccc(OCCN(C)C)cc2)cc1OC.Cl (library stock concentration (final ~1000-fold dilution): 10 mM),NF-kB SEAP reporter activity,RAW-Dual [1]; agonist: LPS (TLR4) 0.1 ug/mL,0.883
same,NF-kB SEAP reporter activity,RAW-Dual [1]; [4],1.04
same,NF-kB SEAP reporter activity,RAW-Dual [1]; [5],0.932
same,NF-kB SEAP reporter activity,RAW-Dual [1]; [6],1.01
Cc1cc(=O)[nH]c(=S)[nH]1,NF-kB SEAP reporter activity,RAW-Dual [2]; [8],0.942
same,NF-kB SEAP reporter activity,RAW-Dual [2]; [7],1.05
Cc1cc(=O)[nH]c(=S)[nH]1 (library stock concentration (final ~1000-fold dilution): 10 mM),NF-kB SEAP reporter activity,RAW-Dual [1]; agonist: LPS (TLR4) 0.1 ug/mL,1.18
same,NF-kB SEAP reporter activity,RAW-Dual [1]; [4],1.04
same,NF-kB SEAP reporter activity,RAW-Dual [1]; [5],1.15
same,NF-kB SEAP reporter activity,RAW-Dual [1]; [6],0.9
O=S(=O)(NCCSSCCNS(=O)(=O)c1cc(Cl)ccc1Cl)c1cc(Cl)ccc1Cl (library stock concentration (final ~1000-fold dilution): 10 mM),NF-kB SEAP reporter activity,RAW-Dual [1]; agonist: LPS (TLR4) 0.1 ug/mL,0.705
same,NF-kB SEAP reporter activity,RAW-Dual [1]; [4],0.705
same,NF-kB SEAP reporter activity,RAW-Dual [1]; [5],0.573
same,NF-kB SEAP reporter activity,RAW-Dual [1]; [6],0.312
O=S(=O)(NCCSSCCNS(=O)(=O)c1cc(Cl)ccc1Cl)c1cc(Cl)ccc1Cl,NF-kB SEAP reporter activity,RAW-Dual [2]; [8],1.13
same,NF-kB SEAP reporter activity,RAW-Dual [2]; [7],1.03
O.O=c1c(O)c(-c2ccc(O)cc2O)oc2cc(O)cc(O)c12 (library stock concentration (final ~1000-fold dilution): 10 mM),NF-kB SEAP reporter activity,RAW-Dual [1]; agonist: LPS (TLR4) 0.1 ug/mL,1.52
same,NF-kB SEAP reporter activity,RAW-Dual [1]; [4],1.13
same,NF-kB SEAP reporter activity,RAW-Dual [1]; [5],1.15
same,NF-kB SEAP reporter activity,RAW-Dual [1]; [6],1.18
O.O=c1c(O)c(-c2ccc(O)cc2O)oc2cc(O)cc(O)c12,NF-kB SEAP reporter activity,RAW-Dual [2]; [8],0.957
same,NF-kB SEAP reporter activity,RAW-Dual [2]; [7],1.05
O=C1N=C(O)CN1N=Cc1ccc(-c2ccc([N+](=O)[O-])cc2)o1,NF-kB SEAP reporter activity,RAW-Dual [2]; [7],1.03
O=C1N=C(O)CN1N=Cc1ccc(-c2ccc([N+](=O)[O-])cc2)o1 (library stock concentration (final ~1000-fold dilution): 10 mM),NF-kB SEAP reporter activity,RAW-Dual [1]; agonist: LPS (TLR4) 0.1 ug/mL,1.06
same,NF-kB SEAP reporter activity,RAW-Dual [1]; [4],0.843
same,NF-kB SEAP reporter activity,RAW-Dual [1]; [5],0.877
same,NF-kB SEAP reporter activity,RAW-Dual [1]; [6],0.756
Cc1ncc(NC(=O)c2cccc(C(F)(F)F)c2)cc1-c1cnc(OC2CCOCC2)c(N2CCOCC2)c1,NF-kB SEAP reporter activity,RAW-Dual [2]; [8],0.898
same,NF-kB SEAP reporter activity,RAW-Dual [2]; [7],1.04
Cc1ncc(NC(=O)c2cccc(C(F)(F)F)c2)cc1-c1cnc(OC2CCOCC2)c(N2CCOCC2)c1 (library stock concentration (final ~1000-fold dilution): 10 mM),NF-kB SEAP reporter activity,RAW-Dual [1]; agonist: LPS (TLR4) 0.1 ug/mL,1.31
same,NF-kB SEAP reporter activity,RAW-Dual [1]; [4],0.938
same,NF-kB SEAP reporter activity,RAW-Dual [1]; [5],0.495
same,NF-kB SEAP reporter activity,RAW-Dual [1]; [6],0.711
CCOc1cc2ncc(C#N)c(Nc3ccc(F)c(Cl)c3)c2cc1NC(=O)/C=C/CN(C)C (library stock concentration (final ~1000-fold dilution): 10 mM),NF-kB SEAP reporter activity,RAW-Dual [1]; agonist: LPS (TLR4) 0.1 ug/mL,0.253
same,NF-kB SEAP reporter activity,RAW-Dual [1]; [4],0.184
same,NF-kB SEAP reporter activity,RAW-Dual [1]; [5],0.159
same,NF-kB SEAP reporter activity,RAW-Dual [1]; [6],0.129
CCOc1cc2ncc(C#N)c(Nc3ccc(F)c(Cl)c3)c2cc1NC(=O)/C=C/CN(C)C,NF-kB SEAP reporter activity,RAW-Dual [2]; [8],0.272
same,NF-kB SEAP reporter activity,RAW-Dual [2]; [7],0.232
